Measured values from the supplement of paper PMC8728848.
Some of the results follow.

Tests used:
Assay in all cases: glycan array binding signal (z-score within array); higher = stronger binding
Details in all cases: glycan notation: IUPAC condensed, linker removed
[1] = target: Gal(b1-3)GlcNAc(b1-2)Man(a1-3)[Gal(b1-3)GlcNAc(b1-2)Man(a1-6)]Man(b1-4)GlcNAc(b1-4)GlcNAc
Procedure, shortened: (§1)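 Glycan array data were curated from 3228 arrays in the Consortium for Functional Glycomics database and kept only where the protein sequence was available. Glycan names were converted to IUPAC-condensed notation, and columns mapping to the same glycan were averaged. The binding signal is a within-array Z-score, averaged across arrays of the same protein sequence at different concentrations or buffers and across linkers. Negative Z-scores can be read as non-binding.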

[2] = target: Gal(b1-3)GlcNAc(b1-2)Man(a1-3)[Gal(b1-3)GlcNAc(b1-2)Man(a1-6)]Man(b1-4)GlcNAc(b1-4)[Fuc(a1-6)]GlcNAc
Procedure, shortened: as §1

[3] = target: Gal(b1-3)GlcNAc(b1-2)Man(a1-3)[GlcNAc(b1-4)][Gal(b1-3)GlcNAc(b1-2)Man(a1-6)]Man(b1-4)GlcNAc(b1-4)GlcNAc
Procedure, shortened: as §1

[4] = target: Gal(b1-3)GlcNAc(b1-2)[Gal(b1-3)GlcNAc(b1-6)]Man(a1-6)[Gal(b1-3)GlcNAc(b1-2)Man(a1-3)]Man(b1-4)GlcNAc(b1-4)GlcNAc
Procedure, shortened: as §1

[5] = target: Gal(b1-3)GlcNAc(b1-3)Gal(b1-3)GlcNAc
Procedure, shortened: as §1

[6] = target: Gal(b1-3)GlcNAc(b1-3)Gal(b1-4)Glc
Procedure, shortened: as §1

[7] = target: Gal(b1-3)GlcNAc(b1-3)Gal(b1-4)GlcNAc
Procedure, shortened: as §1

[8] = target: Gal(b1-3)GlcNAc(b1-3)Gal(b1-4)GlcNAc(b1-2)Man(a1-3)[Gal(b1-3)GlcNAc(b1-3)Gal(b1-4)GlcNAc(b1-2)Man(a1-6)]Man(b1-4)GlcNAc(b1-4)GlcNAc
Procedure, shortened: as §1

[9] = target: Gal(b1-3)GlcNAc(b1-3)Gal(b1-4)GlcNAc(b1-2)[Gal(b1-3)GlcNAc(b1-3)Gal(b1-4)GlcNAc(b1-6)]Man(a1-6)[Gal(b1-3)GlcNAc(b1-3)Gal(b1-4)GlcNAc(b1-2)Man(a1-3)]Man(b1-4)GlcNAc(b1-4)[Fuc(a1-6)]GlcNAc
Procedure, shortened: as §1

[10] = target: Gal(b1-3)GlcNAc(b1-3)Gal(b1-4)GlcNAc(b1-3)Gal(b1-4)GlcNAc(b1-2)[Gal(b1-3)GlcNAc(b1-3)Gal(b1-4)GlcNAc(b1-3)Gal(b1-4)GlcNAc(b1-6)]Man(a1-6)[Gal(b1-3)GlcNAc(b1-3)Gal(b1-4)GlcNAc(b1-3)Gal(b1-4)GlcNAc(b1-2)Man(a1-3)]Man(b1-4)GlcNAc(b1-4)[Fuc(a1-6)]GlcNAc
Procedure, shortened: as §1

[11] = target: Gal(b1-3)GlcNAc(b1-3)Gal(b1-4)GlcNAc(b1-6)[Gal(b1-3)GlcNAc(b1-3)]Gal(b1-4)Glc
Procedure, shortened: as §1

[12] = target: Gal(b1-3)GlcNAc(b1-3)Gal(b1-4)[Fuc(a1-3)]GlcNAc
Procedure, shortened: as §1

[13] = target: Gal(b1-3)GlcNAc(b1-3)Gal(b1-4)[Fuc(a1-3)]GlcNAc(b1-6)[Gal(b1-3)GlcNAc(b1-3)]Gal(b1-4)Glc
Procedure, shortened: as §1

[14] = target: Gal(b1-3)GlcNAc(b1-3)GalNAc
Procedure, shortened: as §1

[15] = target: Gal(b1-3)GlcNAc(b1-6)Gal(b1-4)GlcNAc
Procedure, shortened: as §1

[16] = target: Gal(b1-3)GlcNAc(b1-6)GalNAc
Procedure, shortened: as §1

[17] = target: Gal(b1-3)GlcNAc(b1-6)[Gal(b1-3)]GalNAc
Procedure, shortened: as §1

[18] = target: Gal(b1-3)GlcNAc6S
Procedure, shortened: as §1

[19] = target: Gal(b1-3)[Fuc(a1-4)]GlcNAc
Procedure, shortened: as §1

[20] = target: Gal(b1-3)[Fuc(a1-4)]GlcNAc(b1-2)Man
Procedure, shortened: as §1

[21] = target: Gal(b1-3)[Fuc(a1-4)]GlcNAc(b1-2)Man(a1-3)[Gal(b1-3)[Fuc(a1-4)]GlcNAc(b1-2)Man(a1-6)]Man(b1-4)GlcNAc(b1-4)[Fuc(a1-6)]GlcNAc
Procedure, shortened: as §1

[22] = target: Gal(b1-3)[Fuc(a1-4)]GlcNAc(b1-3)Gal(b1-3)[Fuc(a1-4)]GlcNAc
Procedure, shortened: as §1

[23] = target: Gal(b1-3)[Fuc(a1-4)]GlcNAc(b1-3)Gal(b1-4)[Fuc(a1-3)]GlcNAc
Procedure, shortened: as §1

[24] = target: Gal(b1-3)[Fuc(a1-4)]GlcNAc(b1-6)GalNAc
Procedure, shortened: as §1

[25] = target: Gal(b1-3)[GlcNAc(b1-6)]GalNAc
Procedure, shortened: as §1

[26] = target: Gal(b1-3)[Neu5Ac(a2-6)]GalNAc
Procedure, shortened: as §1

[27] = target: Gal(b1-3)[Neu5Ac(a2-6)]GlcNAc(b1-4)Gal(b1-4)Glc
Procedure, shortened: as §1

[28] = target: Gal(b1-3)[Neu5Ac(b2-6)]GalNAc
Procedure, shortened: as §1

[29] = target: Gal(b1-4)Gal
Procedure, shortened: as §1

[30] = target: Gal(b1-4)GalNAc(a1-3)[Fuc(a1-2)]Gal(b1-4)GlcNAc
Procedure, shortened: as §1

[31] = target: Gal(b1-4)GalNAc(b1-3)[Fuc(a1-2)]Gal(b1-4)GlcNAc
Procedure, shortened: as §1

[32] = target: Gal(b1-4)Glc
Procedure, shortened: as §1

[33] = target: Gal(b1-4)Glc6S
Procedure, shortened: as §1

[34] = target: Gal(b1-4)GlcNAc
Procedure, shortened: as §1

[35] = target: Gal(b1-4)GlcNAc(a1-6)Gal(b1-4)GlcNAc
Procedure, shortened: as §1

[36] = target: Gal(b1-4)GlcNAc(b1-2)Man
Procedure, shortened: as §1

[37] = target: Gal(b1-4)GlcNAc(b1-2)Man(a1-3)Man(b1-4)GlcNAc(b1-4)GlcNAc
Procedure, shortened: as §1

[38] = target: Gal(b1-4)GlcNAc(b1-2)Man(a1-3)[Gal(b1-4)GlcNAc(b1-2)Man(a1-6)]Man(b1-4)GlcNAc(b1-4)GlcNAc
Procedure, shortened: as §1

[39] = target: Gal(b1-4)GlcNAc(b1-2)Man(a1-3)[Gal(b1-4)GlcNAc(b1-2)Man(a1-6)]Man(b1-4)GlcNAc(b1-4)[Fuc(a1-6)]GlcNAc
Procedure, shortened: as §1

[40] = target: Gal(b1-4)GlcNAc(b1-2)Man(a1-3)[Gal(b1-4)GlcNAc(b1-2)Man(a1-6)][Gal(b1-4)GlcNAc(b1-4)]Man(b1-4)GlcNAc(b1-4)[Fuc(a1-6)]GlcNAc
Procedure, shortened: as §1

[41] = target: Gal(b1-4)GlcNAc(b1-2)Man(a1-3)[Gal(b1-4)GlcNAc(b1-2)Man(a1-6)][GlcNAc(b1-4)]Man(b1-4)GlcNAc(b1-4)[Fuc(a1-6)]GlcNAc
Procedure, shortened: as §1

[42] = target: Gal(b1-4)GlcNAc(b1-2)Man(a1-3)[GlcNAc(b1-2)Man(a1-6)]Man(b1-4)GlcNAc(b1-4)GlcNAc
Procedure, shortened: as §1

[43] = target: Gal(b1-4)GlcNAc(b1-2)Man(a1-3)[GlcNAc(b1-4)][Gal(b1-4)GlcNAc(b1-2)Man(a1-6)]Man(b1-4)GlcNAc(b1-4)GlcNAc
Procedure, shortened: as §1

[44] = target: Gal(b1-4)GlcNAc(b1-2)Man(a1-3)[Man(a1-6)]Man(b1-4)GlcNAc(b1-4)GlcNAc
Procedure, shortened: as §1

[45] = target: Gal(b1-4)GlcNAc(b1-2)Man(a1-6)Man(b1-4)GlcNAc(b1-4)GlcNAc
Procedure, shortened: as §1

B1: CFEM-PPl (Pichia pastoris), F2QPV1 (protein)
chain: AVATPPACLLACAAEVVKESSDCDALNNIQCICENEGSAIHACLESTCPDGLSSTALQSFEDVCESVGTEANLDE
glycan array binding signal (z-score) [1]: 0.035
glycan array binding signal (z-score) [2]: -0.192
glycan array binding signal (z-score) [3]: -0.17
glycan array binding signal (z-score) [4]: -0.033
glycan array binding signal (z-score) [5]: -0.128
glycan array binding signal (z-score) [6]: -0.184
glycan array binding signal (z-score) [7]: -0.231
glycan array binding signal (z-score) [8]: -0.202
glycan array binding signal (z-score) [9]: 0.066
glycan array binding signal (z-score) [10]: 0.051
glycan array binding signal (z-score) [11]: 0.231
glycan array binding signal (z-score) [12]: -0.287
glycan array binding signal (z-score) [13]: -0.009
glycan array binding signal (z-score) [14]: -0.197
glycan array binding signal (z-score) [15]: 0.199
glycan array binding signal (z-score) [16]: -0.048
glycan array binding signal (z-score) [17]: 1.45
glycan array binding signal (z-score) [18]: 0.224
glycan array binding signal (z-score) [19]: -0.109
glycan array binding signal (z-score) [20]: -0.114
glycan array binding signal (z-score) [21]: -0.102
glycan array binding signal (z-score) [22]: -0.173
glycan array binding signal (z-score) [23]: -0.307
glycan array binding signal (z-score) [24]: 0.18
glycan array binding signal (z-score) [25]: 1.52
glycan array binding signal (z-score) [26]: 8.06
glycan array binding signal (z-score) [27]: -0.187
glycan array binding signal (z-score) [28]: 0.483
glycan array binding signal (z-score) [29]: -0.302
glycan array binding signal (z-score) [30]: -0.168
glycan array binding signal (z-score) [31]: -0.003
glycan array binding signal (z-score) [32]: -0.08
glycan array binding signal (z-score) [33]: 0.326
glycan array binding signal (z-score) [34]: 0.157
glycan array binding signal (z-score) [35]: 1.38
glycan array binding signal (z-score) [36]: -0.245
glycan array binding signal (z-score) [37]: -0.158
glycan array binding signal (z-score) [38]: -0.008
glycan array binding signal (z-score) [39]: -0.256
glycan array binding signal (z-score) [40]: -0.173
glycan array binding signal (z-score) [41]: -0.177
glycan array binding signal (z-score) [42]: -0.131
glycan array binding signal (z-score) [43]: -0.371
glycan array binding signal (z-score) [44]: -0.148
glycan array binding signal (z-score) [45]: -0.286
